In all, about 110,000 compounds were measured (“z-score”: median about -0.1, highest 2% from about 2 on). The list shows a part of the results. Activity calls are given as the source filed them.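 The calls were made as follows: active = z-score in the third read window above 3 or below -3; inactive = the rest.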

The target in this experiment is Metabotropic glutamate receptor 8 (Rattus norvegicus) (UniProt P70579). Briefly: rat mGluR8 modulators via GIRK flux, primary screen, cell-based, thallium flux, HTS (AID 488969). The following applies: HEK293 rat mGluR8, GIRK (G protein-gated inwardly rectifying potassium channel) thallium flux, FluoZin2; at 10 µM; stronger effect = higher value; submaximal glutamate (EC20) added with thallium.
UniProt P70579, sequence (P70579 whole entry, looked up): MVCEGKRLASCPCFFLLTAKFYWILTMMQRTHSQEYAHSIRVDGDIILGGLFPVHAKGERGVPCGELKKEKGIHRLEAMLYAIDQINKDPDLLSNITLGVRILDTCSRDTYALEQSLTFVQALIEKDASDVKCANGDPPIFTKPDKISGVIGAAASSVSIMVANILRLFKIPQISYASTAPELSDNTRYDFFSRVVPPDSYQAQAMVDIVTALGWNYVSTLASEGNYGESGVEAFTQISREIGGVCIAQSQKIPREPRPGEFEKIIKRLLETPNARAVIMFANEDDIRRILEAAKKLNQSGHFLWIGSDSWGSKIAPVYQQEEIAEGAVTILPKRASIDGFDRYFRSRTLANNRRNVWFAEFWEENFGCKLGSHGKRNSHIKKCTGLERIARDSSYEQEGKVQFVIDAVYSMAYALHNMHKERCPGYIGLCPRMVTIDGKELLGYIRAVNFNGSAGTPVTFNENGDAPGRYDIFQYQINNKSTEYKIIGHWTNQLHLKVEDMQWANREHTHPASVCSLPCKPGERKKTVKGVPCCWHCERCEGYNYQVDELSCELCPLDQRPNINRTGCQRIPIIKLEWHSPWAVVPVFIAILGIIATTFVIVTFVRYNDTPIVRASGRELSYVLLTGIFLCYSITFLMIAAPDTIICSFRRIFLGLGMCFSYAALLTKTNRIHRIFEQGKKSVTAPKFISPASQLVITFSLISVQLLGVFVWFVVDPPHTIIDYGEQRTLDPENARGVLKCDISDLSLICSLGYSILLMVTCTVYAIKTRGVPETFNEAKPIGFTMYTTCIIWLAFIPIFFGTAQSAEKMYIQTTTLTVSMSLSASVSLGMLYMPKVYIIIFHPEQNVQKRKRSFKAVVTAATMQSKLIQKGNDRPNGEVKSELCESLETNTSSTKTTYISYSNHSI
On to `FC(F)(F)c1cc(-c2cccs2)nc2cc(-c3ccccc3)nn12`, for which the z-score was -0.089.
The value for `CC(=O)N1CCC(C(=O)Nc2nc(-c3ccccc3)ns2)CC1` was -0.0333; that for `CO/N=C(/CS(=O)(=O)c1ccc(Br)cc1)c1ccc(OC)cc1` was -0.272; that for `COc1ccc(N2CCN(C(=O)c3c(-c4ccccc4)noc3C)CC2)cc1` was -0.306.
For the compound `COc1ccc(-c2[nH]n(-c3ccc([N+](=O)[O-])cc3)c(=O)c2C=NCc2ccncc2)cc1`, the z-score was -0.276.
The value for `Cc1ccc2nc(NC(=O)CSc3ncnc4c3oc3ccccc34)sc2c1` was 0.762; that for `COc1ccc2[nH]c(=O)c(CN(C(=O)c3ccccn3)C3CCCCC3)cc2c1` was -0.107.
`Cc1csc(SCC(=O)c2c(N)n(CC(C)C)c(=O)n(C)c2=O)n1` showed a z-score of 0.102.
The value for `Cc1ccc(C(Sc2ccccc2)C(Cn2cncn2)C(=O)c2ccccc2)cc1` (stereo unspecified) was -0.241; that for `O=[N+]([O-])c1ccc(NC(=S)N2CCN(c3ccccc3)CC2)cc1` was 0.107; that for `CS(=O)(=O)N(CC(=O)Nc1cc(Cl)ccc1Cl)c1ccccc1Cl` was -0.755.
Then `COc1ccc(S(=O)(=O)Cc2ccc(C(=O)NCc3ccc(F)cc3)o2)cc1`, with -0.0534.
Then `CC(=O)Nn1cnc2c(c1=O)C1(CCCC1)Cc1ccccc1-2`, with 0.316.
`C[C@@H](C(=O)Nc1nc(-c2ccccn2)cs1)N1C(=O)C2CCCCC2C1=O` (stereo partly specified) yielded a z-score of 0.256.
Regarding `CCOC(=O)c1cccc(NC(=O)C2CCN(S(=O)(=O)c3cnc[nH]3)CC2)c1`, the z-score is -0.0462.
The value for `COc1ccc(OC)c(-c2nc3c(C)n[nH]c(=O)c3[nH]2)c1` was 0.548; that for `Cc1cccc(N2CCN(CC(=O)Nc3nccs3)CC2)c1C` was 0.000429.
The value for `COc1ccc(S(=O)(=O)NC2CCCCC2)c(C)c1C` was -1.03.
Then `O=C(Nc1cccc(NC(=O)c2cccs2)c1)c1ccco1`, with -0.313.
`O=C(CCn1nc(-c2ccccc2)ccc1=O)NCCCN1CCCCCC1` yielded a z-score of 0.133.
On to `O=C(NC(NC(=S)Nc1ccccc1Cl)C(Cl)(Cl)Cl)c1cccc(Cl)c1` (stereo unspecified), for which the z-score was -0.0238.
Then `O=C(c1ccc(-n2cnnn2)cc1)N1CCCCC1`, with 0.294; and `COc1ccc(NC(=S)NNC(=O)Cn2nc([N+](=O)[O-])cc2C)cc1`, with -1.44.
The value for `Nc1ccc(-c2cc(-c3ccc(N)cc3)nc(-c3ccccc3)n2)cc1` was -0.15; that for `Cc1ccc(S(=O)(=O)Nc2ccccc2CNc2ncc(Br)cc2Br)cc1` was 0.00788; that for `CC1CCN(S(=O)(=O)c2ccc(NC(=O)CSc3nnnn3C)cc2)CC1` was 1.64.
Then `COc1ccc(C2CC(=O)C(C=NCCN3CCN(C(C)=O)CC3)=C(O)C2)cc1` (stereo unspecified), with -0.0865.
For the compound `CN(C)C(CNS(=O)(=O)c1ccc(Br)cc1)c1cccnc1` (stereo unspecified), the z-score was 1.24.
The value for `O=C(Nc1nc(-c2ccco2)c(-c2ccco2)s1)C1CCC1` was -0.47; that for `COC(=O)c1ccc(N2C(=O)c3ccc(OC)c(OC)c3C2=O)cc1` was -0.174; that for `CCOc1ccc(C2C(C#N)=C(C)NC3=C2C(=O)c2ccccc23)cc1` (stereo unspecified) was 0.179.
Consider `O=C(CNc1ccc2ccccc2c1)N/N=C/c1ccc([N+](=O)[O-])o1`, for which the z-score was -0.0765.
Then `O=C(CSc1ncn[nH]1)NCc1ccccc1`, with 0.318; and `CCOc1ccc(S(=O)(=O)Nc2cc(Cl)ccc2O)cc1`, with -0.191; and `CCCCOC(=O)C[N+](C)(C)CCOC1CC2CCC1(C)C2(C)C` (stereo unspecified), with -0.137.
The value for `O=C(COc1ccccc1F)NC1CCN(Cc2ccccc2)CC1` was 0.587; that for `COc1ccc(-n2nnnc2-c2cnc(N3CCCC3)nc2C(F)(F)F)cc1` was -0.837.
The value for `COc1ccc(-c2nnc(SCC(=O)c3ccc[nH]3)o2)cc1` was 0.399; that for `Oc1ccc(N2CCN(C(c3cccs3)c3nnnn3CCc3ccccc3)CC2)cc1` (stereo unspecified) was -0.146.
As to `Cc1onc(-c2ccccc2)c1C(=O)Nc1ccc(OC(C)C)cc1`, the z-score is 0.23.
In turn, `Cc1[nH]c2ccccc2c1C1(O)C(=O)N(C(C)C)c2ccccc21` (stereo unspecified) had a z-score of 0.246.
Compound `Cc1cccc(N2CCN(C(=O)c3cccn4c(=O)c5c(C)c(C)sc5nc34)CC2)c1C` showed a z-score of 0.451.
The value for `COc1ccccc1CNCc1cccs1` was 0.411.
Turning to `CC(C)OC(=O)NCCOC(=O)Nc1ccc(Cl)c(Cl)c1`, the z-score is -0.143.
Then `COc1ccccc1NC(=O)N1CCCC1C(=O)NCc1ccccc1F` (stereo unspecified), with -0.0827.
With `Cc1cc(C)c(-c2cc(NC(=O)CSc3n[nH]c(N)n3)n(-c3ccccc3)n2)cc1C`, the z-score is -0.577.
Then `COc1ccc(CC(=O)NC2CCN(CC(=O)Nc3ccc4c(c3)OCCO4)CC2)cc1OC`, with -0.282.
As to `O=C1CN(C(=O)C2CC2)c2ccccc2N1`, the z-score is -0.128.
`CNc1nc(NCCOC23CC4CC(CC(C4)C2)C3)nc(OCC(F)(F)F)n1`: the z-score was -0.244.
As to `CCn1c(=O)c(C(=O)Nc2nc3ccccc3[nH]2)c(O)c2ccccc21`, the z-score was -0.711.
Then `Cc1ccnc2nc(C(=O)Nc3ccc(N4CCOCC4)cc3)nn12`, with 0.0976.
The value for `CN1CCN(c2cc(-c3ccccc3)nc3cc(-c4ccc(F)cc4)nn23)CC1` was 0.281; that for `CCOc1ccc(NC(=O)CN2CC(c3ccccc3)CC2=O)cc1` (stereo unspecified) was -0.314.
Then `Cc1ccccc1Cn1c(=O)c2c(nc3n2CCCN3Cc2ccccc2)n(C)c1=O`, with -0.761.
In the case of `CC(NC(=S)Nc1ccc(Cl)cc1)C(c1ccccc1)N1CCOCC1` (stereo unspecified), the z-score amounted to 0.0913.
As for `CCOc1ccc(NC(=O)CS(=O)(=O)c2cn(CC)c3ccccc23)cc1`, the z-score stood at 0.00496.
Then `Cc1ccc(OCCNC(=O)/C=C/c2ccccc2)cc1C`, with -0.203.
In turn, `Cc1cccc(NC(=O)CC(C)(C)C)c1` displayed a z-score of 0.727.
The value for `Cc1ccc(CSc2nnc(CC(=O)Nc3ccc(C)cc3)n2C)cc1` was -0.273; that for `C/C(=N/NC(=O)c1cccs1)c1ccc(NC(=O)COc2ccc(Cl)cc2Cl)cc1` was -0.27.
Then `COC(=O)C1CC(=O)c2sccc2C1` (stereo unspecified), with -0.259.
Then `N#CN=C(N)c1ccccc1`, with -1.18; and `CCOCCCNC(=O)c1ccc(N(C)S(=O)(=O)c2ccc(OC)cc2)cc1`, with -0.0655.
Consider `Cc1cc(C)c(S(=O)(=O)n2ccc3ccccc32)c(C)c1`, for which the z-score was -0.0712.
The value for `CCN1CCCn2c1nc1c2c(=O)n(C)c(=O)n1C` was -0.0457.
As to `CC(Sc1nnc(-c2cccs2)n1-c1ccccc1)C(=O)NCc1ccco1` (stereo unspecified), the z-score was -0.428.
The value for `COC(=O)c1ccc(C2C(C#N)=C(N)Oc3cc(C)n(C)c(=O)c32)cc1` (stereo unspecified) was -0.103; that for `O=C(c1ccc(N2CCOCC2)nc1)N1CCOCC1` was -0.105; that for `CCN(CC)CCN(CC)Cc1ccccc1Br` was 0.52.
The value for `CCc1nc(N[C@@H](CC(C)C)C(=O)O)c2oc3ccccc3c2n1` was -0.731; that for `COc1ccc(NC(=O)Cn2c(-c3ccccc3)cn(-c3ccc(C)cc3)c2=O)cc1` was -0.126; that for `COCc1cc(Sc2ccc(Cl)cc2Cl)nc(-c2ccccc2)n1` was -0.0583.
Then `C=CCn1c(SCC(=O)c2c(N)n(C)c(=O)n(C)c2=O)nc2sc(C)c(C)c2c1=O`, with -0.369.
In turn, `COc1nc(NCc2ccc(Cl)cc2)nc(OC)n1` returned a z-score of 0.461.
Turning to `CCCCOC(=O)c1ccc(NC(=O)C(CCS(C)(=O)=O)NC(C)=O)cc1` (stereo unspecified), the z-score was -0.251.
With `CC(NC(=O)C1CCC1)c1ccc(Cl)cc1` (stereo unspecified), the z-score was -0.336.
`C#CCSc1nnc(-c2ccc(C)cc2)o1`: the z-score was -0.00284.
Regarding `CC(C)CNC(=O)CSc1nc2scc(-c3ccccc3)c2c(=O)[nH]1`, the z-score was -0.437.
The value for `CCN(Cc1ccccc1)C(c1cc2ccc(C)cc2[nH]c1=O)c1nnnn1CCOC` (stereo unspecified) was -0.0392.
Then `CCCN1C(=O)C2C(C(=O)Nc3cccc(OC)c3)C3C=CC2(O3)C1C(=O)NC1CCCCC1` (stereo unspecified), with -0.461; and `COc1ccc(CNC(=O)Cn2cnc3c(=O)n(C)c(=O)n(C)c32)cc1`, with -0.0364.
The value for `COc1ccc(N(C)S(=O)(=O)c2cccc(C(=O)OC(C(=O)Nc3cc(C)cc(C)c3)c3ccccc3)c2)cc1` (stereo unspecified) was 0.055; that for `O=C(/C=N/O)NCCCN1CCOCC1` was -0.0436.
With `Cc1ccc2[nH]cc(C(=O)CN3CCOCC3)c2c1`, the z-score was -0.264.
Then `CC1CC(C)CN(C(=O)c2cc(-c3ccccn3)nc3ccccc23)C1` (stereo unspecified), with -1.27; and `N#C/C(=C\c1ccc[nH]1)S(=O)(=O)c1ccccc1`, with 0.0633; and `CN(C)S(=O)(=O)c1cccc(C(=O)NCc2cccs2)c1`, with -0.326.
The value for `O=c1ccn(CCOc2ccc(Cl)cc2)c(=O)[nH]1` was 0.0702; that for `CCN(CC)CCN1C(=O)C(=O)/C(=C(/O)c2cnn(-c3ccccc3)c2C)C1c1cccs1` (stereo unspecified) was -0.117.
Then `COc1ccc(NC(=O)C2CC(=O)NC3=C2C(=O)CC(C)(C)C3)cc1` (stereo unspecified), with 0.113; and `Cc1[nH]n(-c2ccccc2)c(=O)c1/C=N/Nc1nncc(-c2ccccc2)n1`, with 0.498; and `Cc1cccc(NC(=O)C2=C(O)c3ccccc3N(C)S2(=O)=O)c1`, with -0.316.
Regarding `Nn1cnnc1SCC(=O)Nc1ccc2c(c1)OCCO2`, the z-score was -1.
The value for `O=C(CSc1nnc(Cn2cnc3ccccc32)o1)Nc1cccc2ccccc12` was 0.497; that for `Cc1ccc(S(=O)(=O)N(CCC(=O)O)Cc2ccc(Cl)cc2)cc1` was -0.125.
Regarding `CCn1c(CCCNC(=O)c2ccc(F)cc2)nc2ccccc21`, the z-score turned out to be 0.003.
The value for `O=C(Cn1nnc(-c2ccccc2F)n1)Nc1cccc2ncccc12` was 2.27; that for `O=[N+]([O-])c1ccc(COc2cccc(CNc3ccc(Br)cc3)c2)cc1` was 0.133.
The value for `CC(C)OC(=O)CSc1nc2ccccc2s1` was -0.625; that for `C=CCn1c(SC(C)CC)nc(O)cc1=O` (stereo unspecified) was -0.418.
Then `CN1CCN(C2=C(Cl)C(=O)N(c3ccc(Cl)c(Cl)c3)C2=O)CC1`, with -0.0299; and `N=c1ccn(Cc2ccc(Cl)cc2)cc1`, with 0.222.
Regarding `CCOC(=O)c1c(NC(=O)CSc2nncn2C)sc(C)c1C`, the z-score was -0.165.
Regarding `Clc1ccc(-c2nc3cnccn3c2NC2CCCC2)cc1`, the z-score amounted to 0.545.
Then `COC(=O)Cc1c(C)nc2nc(-c3ccc(C)cc3)[nH]n2c1=O`, with -0.14; and `O=C(Cn1nnc(-c2ccccc2NC(=O)C2CC2)n1)NC1CCCCC1`, with -0.659; and `CC(C)c1ccc(-c2c(C#N)c(N)nc3c2CCCCC3)cc1`, with -0.123.
Take `CCCCOc1ccc(NC(=O)c2cnc(C)cn2)cc1`: the z-score is -0.266.
Then `Cc1cc(C)c2nc(NC(=O)c3cc(C)on3)sc2c1`, with active: 12; and `CCOC(=O)C(C)Sc1cc(CS(=O)(=O)c2ccccc2)nc(-c2ccccc2)n1` (stereo unspecified), with -0.369; and `CCc1ccc(NC(=O)C(CC)Sc2nc3cc4c(cc3c(=O)n2Cc2ccco2)OCO4)cc1` (stereo unspecified), with -0.0882.

The values are drawn from PubChem BioAssay AID488969 (Vanderbilt High Throughput Screening Facility, 2010).
